Test results taken from PubChem BioAssay AID485294 (National Center for Advancing Translational Sciences (NCATS), 2010).
Hit rate of the full screen: of about 370,000 compounds, about 150 (0.041%) were called active. The shares of active, inactive and inconclusive entries below differ from those in the screen. Calls follow the shape of the dose curve; as a rule, active = well fitted inhibition curve with a large enough effect; inconclusive = small, poorly fitted or top-dose-only effect; inactive = flat fitted curve, though single readings scatter. No potency is given beside an inconclusive call; the fits are too rough.

biological target: Beta-lactamase (Escherichia coli (strain K12)) (UniProt P00811); assay: qHTS Inhibitors of AmpC Beta-Lactamase (assay with detergent); details: AmpC hydrolysis of nitrocefin, absorbance 480 nm, 0.01% Triton; series mostly up to 114 µM; also: nearly all actives have a fitted effect of over 25% in size
Procedure, shortened: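 AmpC (5.3 nM in the dispensed reagent) in 20 mM phosphate pH 7.0 with 0.01% (detergent screen) or 0.0001% Triton X-100 was preincubated with compounds for 15 min at room temperature. Nitrocefin was then added from an 800 uM solution, and hydrolysis was followed at 480 nm.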
Potency is read from the fitted curve at half-maximal effect; tags tell the direction and shape of the fitted curve.

UniProt P00811, sequence (P00811 whole entry, looked up): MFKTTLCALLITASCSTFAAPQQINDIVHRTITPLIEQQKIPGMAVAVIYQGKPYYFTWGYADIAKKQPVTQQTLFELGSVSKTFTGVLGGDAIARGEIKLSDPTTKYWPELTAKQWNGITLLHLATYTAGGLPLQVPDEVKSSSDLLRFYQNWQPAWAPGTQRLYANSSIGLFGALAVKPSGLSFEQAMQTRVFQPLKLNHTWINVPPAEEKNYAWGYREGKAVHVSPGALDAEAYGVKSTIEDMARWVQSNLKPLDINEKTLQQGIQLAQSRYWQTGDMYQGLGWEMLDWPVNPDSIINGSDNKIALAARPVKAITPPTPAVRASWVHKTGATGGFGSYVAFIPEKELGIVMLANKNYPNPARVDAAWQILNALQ

Compound | Potency
CSc1cccc(NC(=O)Nc2ccccc2C(N)=O)c1 | inactive
CCc1ccc2[nH]c(=O)c(C3C(C#N)=C(N)Oc4c3ccc3cccnc43)cc2c1 (stereo unspecified) | inactive
O=[N+]([O-])c1ccc(/C=N/N2CCN(c3ccncc3S(=O)(=O)N3CCCCC3)CC2)cc1 | inconclusive [inhibitor, partial curve, poor fit]
O=C(c1ccc([N+](=O)[O-])o1)N(Cc1nnc(-c2ccccc2Cl)o1)C1CC1 | inactive
CCOC(=O)CSc1nc2c([nH]c3ccccc32)c(=O)n1-c1ccc(OCC)cc1 | inactive
COC(=O)C1(Cc2cc(-c3ccc(Cl)cc3)no2)CCN(C(=O)OC(C)(C)C)CC1 | inactive
COc1ccc(NC(=O)Cn2nnc(C(=O)NCc3cccs3)c2N)cc1Cl | inconclusive [inhibitor, full curve, poor fit]
COc1ccc(CNC(=O)c2cnc(N3CCCC3)nc2C)cc1 | inactive
COc1ccc(NC(=O)CSc2ccccc2)cn1 | inactive
COc1ccc(F)cc1Cn1nc(C(=O)O)c2ccccc2c1=O | inconclusive [inhibitor, full curve, poor fit]
C(=N\Nc1ncnc2nc[nH]c12)/c1cccs1 | inactive
Cc1ccc2c(CC(=O)NCC3(N4CCOCC4)CCCCC3)coc2c1C | inactive
O=C(CCc1ccccc1)Nc1nc2n(n1)C(c1ccccc1)CC(=O)N2 (stereo unspecified) | inconclusive [inhibitor, full curve, poor fit]
O=C(CCCC(=O)OCC(=O)c1ccc(Cl)cc1)NC1CCCCC1 | inconclusive [inhibitor, partial curve]
O=C(c1c(Cl)nc2sccn12)N1CCN(c2cccc(Cl)c2)CC1 | inconclusive [inhibitor, partial curve, poor fit]
CS(=O)(=O)c1nc(S(=O)(=O)c2ccc(Cl)cc2)c(N2CCC3(CC2)OCCO3)s1 | inactive
CCCOC(=O)c1ccc(Cl)c(NC(=O)c2ccc(-c3ccccc3)cc2)c1 | inconclusive [inhibitor, partial curve]
COc1ccc(S(=O)(=O)NCc2cccn2Cc2cccc(C)c2)cc1OC | inconclusive [inhibitor, partial curve]
CNCCCc1[nH]nc(N)c1C#N | inconclusive [inhibitor, full curve, poor fit]
Cc1ccc2nc(SCC(=O)Nc3cccc4ccccc34)nc(=O)n2c1 | inconclusive [inhibitor, full curve, poor fit]
COC(=O)c1cc2ccsc2n1Cc1nc(-c2cccc(Cl)c2)oc1C | inactive
O=C1[C@H]2[C@@H](c3ccc(Cl)cc3)N3C(=O)N(c4cccc(Br)c4)C(=O)[C@@]3(Cc3ccc(Cl)cc3)[C@H]2C(=O)N1C1CCCCC1 | inconclusive [inhibitor, partial curve, poor fit]
CC1(C)CCCN(C(=O)N2c3ccccc3Sc3ccccc32)C1 | inconclusive [inhibitor, full curve]
Cc1ccnc(NS(=O)(=O)c2ccc(NC(=O)c3oc4ccccc4c3C)cc2)n1 | inconclusive [inhibitor, partial curve]

Compound | Potency
COC(=O)c1ccccc1NC(=O)/C=C/C(=O)O | inconclusive [inhibitor, single point]
COc1cccc(CNC(=O)Nc2cccs2)c1 | inconclusive [inhibitor, full curve, poor fit]
CCCn1c(CCC(=O)Nc2ccccc2Cc2ccccc2)nc2cc(S(=O)(=O)N3CCOCC3)ccc21 | inconclusive [inhibitor, full curve, poor fit]
COc1ccc(NC(=O)NC(C)C2CC3CCC2C3)cc1 (stereo unspecified) | inactive
CCCC(=O)NCc1nc2cccnc2n1Cc1ccc(F)cc1 | inactive
O=[N+]([O-])c1ccccc1/C=N\Nc1nccs1 | inconclusive [inhibitor, partial curve, poor fit]
COc1ccc(/C(O)=C2\C(=O)C(=O)N(CC3CCCO3)C2c2cc(OC)ccc2OC)cc1 (stereo unspecified) | inconclusive [inhibitor, single point]
C=CCNCC#CCOc1ccc(OC)cc1 | inactive
Cc1ccc(NC(=O)C2CCCN(c3nnc(-n4c(C)ccc4C)s3)C2)c(C)c1 (stereo unspecified) | inactive
CC1=C(C)CS(=O)N(c2ccc(S(N)(=O)=O)cc2)C1 (stereo unspecified) | inconclusive [inhibitor, partial curve]
CCCCCCCSc1cc(OC)c(CCN(C)C)cc1OC | inactive
CN(CC(=O)Nc1ccc(N2CCOCC2)cc1)CC(=O)Nc1cccc(C#N)c1 | inconclusive [inhibitor, full curve]
COc1ccc(NC(=O)C(CC(C)C)NC(=O)c2ccccc2C)cn1 (stereo unspecified) | inconclusive [inhibitor, full curve]
O=c1[nH]c(C2CCN(S(=O)(=O)c3ccc4c(c3)OCCO4)CC2)nc2c1nnn2Cc1c(F)cccc1Cl | inconclusive [inhibitor, full curve, poor fit]
Cc1ccnc(NC(=O)CCc2c[nH]c3ccccc23)c1 | inconclusive [inhibitor, full curve, poor fit]
Nc1cc2nc3ccccc3oc-2cc1=O | inactive
Cc1ccc(NC(=O)Cn2c(O)c(N=NC(N)=S)c3ccccc32)cc1 | inactive
CC(=O)Nc1c([N+](=O)[O-])cc(C)c(Cl)c1[N+](=O)[O-] | inconclusive [inhibitor, partial curve, poor fit]
COc1cccc(NC(=O)CSc2nnc3scc(-c4ccc(Cl)cc4)n23)c1 | inactive
CC(C)c1nnc(SCC(=O)N2CCN(C(=O)c3ccco3)CC2)n1N | inconclusive [inhibitor, full curve, poor fit]
COc1ccc(CN(C(=O)CNC(=O)c2ccco2)C(C(=O)NCC2CCCO2)c2ccc(OC)c(OC)c2)cc1 (stereo unspecified) | inconclusive [inhibitor, partial curve]
O=C(CSc1ccc(-c2cccc([N+](=O)[O-])c2)nn1)NCc1ccccc1 | inconclusive [inhibitor, full curve, poor fit]
O=C(NC1=NCCS1)c1ccc(Cl)cc1 | inactive
CCOC(=O)c1cc(-c2ccc(N)cc2)sc1N | inconclusive [inhibitor, partial curve]

Compound | Potency
CCCCCN1CC(O)=C(c2nc(-c3ccc(Cl)cc3)cs2)C1=N | inconclusive [inhibitor, full curve, poor fit]
O=C(c1cc(-c2ccccc2)nn1-c1ccccc1)N1CCN(S(=O)(=O)c2ccc(F)cc2)CC1 | inconclusive [inhibitor, full curve, poor fit]
O=[N+]([O-])c1ccccc1NCc1c(O)ccc2ccccc12 | inactive
CNC(=O)CN(c1cc(OCCOC)c(Cl)cc1Cl)S(=O)(=O)c1ccc(OC)cc1 | inconclusive [inhibitor, partial curve]
O=C(COC(=O)C1CC2CCCC(C1)C2=O)Nc1nc(-c2ccc(F)c(F)c2)cs1 (stereo unspecified) | inconclusive [inhibitor, single point]
O=C(CSc1nc2ccccc2o1)Nc1cc(C(F)(F)F)ccc1N1CCOCC1 | inactive
CN(CC(=O)Nc1cccc(S(=O)(=O)N2CCOCC2)c1)CC(=O)Nc1ccc(Cl)c(C(F)(F)F)c1 | inactive
c1ccc(COc2ccc(-c3sc(Nc4ccccc4)n[n+]3-c3ccccc3)cc2)cc1 | inactive
COC(=O)c1cn(CCOc2ccccc2OC)c2ccccc12 | inconclusive [inhibitor, full curve, poor fit]
O=C(N/N=C/c1cccc2ccccc12)c1ccccc1Cl | inactive
N#C/C(=C\c1cn(CCOc2ccccc2)c2ccccc12)C(=O)NCC1CCCO1 (stereo unspecified) | inactive
NS(=O)(=O)c1ccc(CCNC(=O)C2(S(=O)(=O)c3ccc(Cl)cc3)CC2)cc1 | inconclusive [inhibitor, full curve, poor fit]
O=C(NCc1cccnc1)c1ccc(COc2ccc(Cl)cc2)cc1 | inactive
Oc1ccccc1/C=N/Nc1ccnc(SCc2ccccc2)n1 | inactive
Cc1cc(-c2ccc(C)c(S(=O)(=O)Nc3ccc(S(N)(=O)=O)cc3)c2)on1 | inconclusive [inhibitor, full curve]
Cc1cccc(-c2nc3cc(NC(=O)C4CCCO4)ccc3o2)c1 (stereo unspecified) | inactive
O=C(CSc1n[nH]c(-c2ccccc2)n1)NC1CCCCC1 | inconclusive [inhibitor, full curve, poor fit]
Fc1ccccc1N1CCN(C(c2cccs2)c2nnnn2CCc2ccccc2)CC1 (stereo unspecified) | inconclusive [inhibitor, single point]
O=C(NCc1ccc2c(c1)OCO2)c1ccc(COc2cc(Cl)ccc2Cl)o1 | inconclusive [inhibitor, single point]
O=C(CN1CCN(Cc2ccc3c(c2)OCO3)CC1)N1CCc2[nH]c3ccccc3c2C1 | inconclusive [inhibitor, full curve, poor fit]
Cc1ccc(S(=O)(=O)NC2CC(=O)N(c3ccc4c(c3)OCCO4)C2)cc1 (stereo unspecified) | inconclusive [inhibitor, partial curve]
CN(Cc1ccccc1)C(=O)COC(=O)c1ccc(Cl)c(N)c1 | inactive
COCCCN1C(=O)/C(=C/c2ccc(CNS(=O)(=O)c3ccccc3)o2)C(C(=O)OC)=C1C | inactive
